Measured values from PubChem BioAssay AID1468 (National Center for Advancing Translational Sciences (NCATS), 2008).
Screen size: about 280,000 compounds; about 1,100 (0.39%) were called active. The shares of active, inactive and inconclusive entries below differ from those in the screen. Calls come from the whole dose curve; as a rule, active = well fitted inhibition curve with a large enough effect; inconclusive = small, poorly fitted or top-dose-only effect, or effect the other way; inactive = flat fitted curve, though single readings scatter. No potency is given beside an inconclusive call; the fits are too rough.
Note: nearly all actives have a fitted effect of over 55% in size.
Potency is the fitted concentration of half-maximal effect; tags give direction and shape of the fitted curve.

The compounds below were run against Microtubule-associated protein tau (Homo sapiens) (UniProt P10636) (assay: qHTS for Inhibitors of Tau Fibril Formation, Fluorescence Polarization). Conditions: K18 P301L tau heparin fibrillization, Alexa594 FP, 6 h; series mostly up to 57.7 µM.
UniProt P10636, sequence (P10636 whole entry, looked up, the tested form may be a part): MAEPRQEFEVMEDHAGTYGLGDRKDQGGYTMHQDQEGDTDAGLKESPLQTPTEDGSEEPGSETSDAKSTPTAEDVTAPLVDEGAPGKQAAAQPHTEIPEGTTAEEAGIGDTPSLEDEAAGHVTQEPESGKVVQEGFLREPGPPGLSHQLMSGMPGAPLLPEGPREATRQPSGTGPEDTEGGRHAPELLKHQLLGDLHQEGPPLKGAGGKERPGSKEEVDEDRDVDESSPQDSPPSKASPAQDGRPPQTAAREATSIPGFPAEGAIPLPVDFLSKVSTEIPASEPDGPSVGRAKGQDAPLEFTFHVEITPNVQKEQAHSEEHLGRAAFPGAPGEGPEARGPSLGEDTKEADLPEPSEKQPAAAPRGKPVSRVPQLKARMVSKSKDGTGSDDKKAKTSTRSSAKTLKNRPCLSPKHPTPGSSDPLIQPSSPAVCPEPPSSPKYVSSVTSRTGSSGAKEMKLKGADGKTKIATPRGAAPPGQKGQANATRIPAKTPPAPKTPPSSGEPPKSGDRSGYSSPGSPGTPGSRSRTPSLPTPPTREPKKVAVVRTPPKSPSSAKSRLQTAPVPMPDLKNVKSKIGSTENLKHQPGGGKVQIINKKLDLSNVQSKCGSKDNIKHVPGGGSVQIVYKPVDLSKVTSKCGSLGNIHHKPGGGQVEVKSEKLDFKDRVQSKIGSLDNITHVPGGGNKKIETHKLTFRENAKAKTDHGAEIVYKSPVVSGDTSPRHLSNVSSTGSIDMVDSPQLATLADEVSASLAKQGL
Summary of the method: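 Human K18 P301L fragment (15 uM unlabeled plus 0.24 uM Alexa 594-labeled) in 100 mM sodium acetate pH 7 with compound, aggregation induced by 20 uM heparin for 6 hr at 37 C. ThT (30 uM) added for 1 hr, then Alexa 594 FP read.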
For O=c1[nH]c2ccc(NCc3ccc(-c4cccc(Cl)c4)o3)cc2[nH]1, the Potency was inconclusive [activator, partial curve].
COc1ccc(NC(=S)Nc2ccc(OCc3ccccc3)cc2)c(OC)c1 was tested, and the Potency was inconclusive [activator, partial curve, poor fit].
In the case of O=C(Nc1ccc(N2CCOCC2)cc1)Nc1cnsn1, the Potency was “inactive”.
O=c1c2c(-c3ccccc3)csc2nc2c3ccccc3c(NCCN3CCOCC3)nn12 was tested, and the Potency was inconclusive [inhibitor, single point].
For CCCN1CC=C2C(C#N)=C(N)C(C#N)(C#N)C(c3cc(OC)ccc3OC)C2C1 (centres undefined), the Potency was inconclusive [inhibitor, partial curve].
With O=C(/C=C/c1ccc(Cl)c(Cl)c1)n1cccn1 the Potency was inconclusive [inhibitor, full curve].
For Cc1c(-n2c(SCC(=O)O)nnc2-c2ccccc2Cl)c(=O)n(-c2ccccc2)n1C, the Potency was inconclusive [inhibitor, single point].
O=C(Nn1c(O)c(C=C2N=c3ccccc3=N2)sc1=S)c1cccc(Cl)c1 was tested, and the Potency was inconclusive [inhibitor, single point].
COc1ccc(-n2c(=O)n(Cc3ccccc3)c(=O)c3[nH]cnc32)cc1 was tested, and the Potency was “inactive”.
In the case of COc1cccc(/C=C/C(=O)Nc2ccc3nc4n(c(=O)c3c2)CCCC4)c1OC, the Potency was inconclusive [inhibitor, partial curve, poor fit].
In the case of CCOC(=O)c1ccc(NC(=O)Nc2ccc3c(c2)OCCO3)cc1, the Potency was inconclusive [activator, partial curve, poor fit].
COc1ccc(CCNC(=O)Cn2nnc(-c3ccc(C(F)(F)F)cc3)n2)cc1OC was tested, and the Potency was “inactive”.
For CCS(=O)(=O)c1ncc(N(Cc2ccco2)Cc2sccc2C)c(C(=O)Nc2cc(C)ccc2C)n1, the Potency was “inactive”.
CC/C(=N/O)c1cnnc(SC)n1 was tested, and the Potency was inconclusive [inhibitor, single point].
For COCCCNCCOCCOc1c(OC)cccc1OC, the Potency was “inactive”.
COCCn1c(SCC(=O)Nc2ccc(F)c(Cl)c2)nc2c(oc3ccccc32)c1=O was tested, and the Potency was inconclusive [inhibitor, full curve].
In the case of CC[C@H](NC(=O)c1c(C)c(-c2ccccc2)nc2ccccc12)c1ccccc1, the Potency was “inactive”.
COc1ccc(C2NC(Cc3ccccc3)(C(=O)O)C3C(=O)N(c4ccccc4OC)C(=O)C23)cc1 (centres undefined) was tested, and the Potency was “inactive”.
With CCOC(=O)c1[nH]c2ccc(OCC)cc2c1NC(=O)CN1CCN(c2ccccn2)CC1 the Potency was inconclusive [activator, partial curve].
